# Assay results reported in PubChem BioAssay AID1645882 (National Center for Advancing Translational Sciences (NCATS), 2021).
# In all, about 16,000 compounds went through this assay and about 120 (0.75%) were called active. Inconclusive results (about 4%) are left out. The call rests on the fitted dose curve; in most records, active means well fitted inhibition curve with a large enough effect; inconclusive means small, poorly fitted or top-dose-only effect; inactive means no such curve, though single readings can be large or run the other way. The list shows a part of the results. Where a SMILES comes first, the peptide text is derived from it. Bridges are numbered along the chain shown (N, C = ends).
# Molecular target: Rap guanine nucleotide exchange factor 3 (Homo sapiens) (UniProt O95398)
# Test: Validation qHTS for antagonist of cAMP-regulated guanine nucleotide exchange factor 3 (EPAC1); further: nearly all actives have a fitted effect of over 75% in size;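 on activity change, negative = inhibition: plate controls were DMSO for no effect and ATA control for full effect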
# Details: EPAC1 Rap1B-BODIPY-GDP exchange, fluorescence; series mostly up to 150 µM; activity change, negative = inhibition: at the top concentration
# Procedure, shortened: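 Nucleotide exchange followed as fluorescence loss when BODIPY-GDP leaves Rap1B (480 nm excitation, 540 nm emission), read at 5 min intervals over 30 min. Reaction: 100 nM EPAC1, 250 nM RAP1B-BODIPY-GDP, 50 uM GDP; ATA and DMSO define normalization.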
# Potency means the concentration at half of the fitted maximal effect.
# Sequence of UniProt O95398 (O95398 whole entry, looked up): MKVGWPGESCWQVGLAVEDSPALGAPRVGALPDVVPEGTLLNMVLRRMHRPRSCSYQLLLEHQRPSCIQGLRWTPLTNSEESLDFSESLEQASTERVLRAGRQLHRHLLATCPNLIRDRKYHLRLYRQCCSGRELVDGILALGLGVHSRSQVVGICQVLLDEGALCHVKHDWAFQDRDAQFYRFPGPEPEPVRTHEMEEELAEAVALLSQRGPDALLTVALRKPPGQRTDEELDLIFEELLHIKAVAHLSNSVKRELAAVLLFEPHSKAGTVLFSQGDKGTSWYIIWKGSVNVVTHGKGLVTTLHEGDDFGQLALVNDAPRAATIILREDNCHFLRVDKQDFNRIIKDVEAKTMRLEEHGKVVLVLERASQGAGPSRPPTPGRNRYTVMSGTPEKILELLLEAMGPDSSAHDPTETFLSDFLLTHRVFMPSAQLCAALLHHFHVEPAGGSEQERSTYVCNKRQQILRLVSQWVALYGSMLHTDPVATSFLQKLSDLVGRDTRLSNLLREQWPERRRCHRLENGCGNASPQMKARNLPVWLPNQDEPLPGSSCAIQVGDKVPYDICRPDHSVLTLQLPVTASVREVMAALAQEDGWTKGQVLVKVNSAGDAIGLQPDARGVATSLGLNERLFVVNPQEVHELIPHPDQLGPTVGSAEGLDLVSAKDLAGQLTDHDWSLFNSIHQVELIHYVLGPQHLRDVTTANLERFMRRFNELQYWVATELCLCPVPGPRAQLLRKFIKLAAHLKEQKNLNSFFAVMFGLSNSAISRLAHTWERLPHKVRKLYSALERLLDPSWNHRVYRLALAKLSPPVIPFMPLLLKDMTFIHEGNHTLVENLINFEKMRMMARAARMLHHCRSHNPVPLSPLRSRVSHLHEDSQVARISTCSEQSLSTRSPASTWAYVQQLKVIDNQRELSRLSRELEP
Compound,"activity change, negative = inhibition",Potency
CC(CSC(=O)c1ccccc1)C(=O)N1C[C@@H](Sc2ccccc2)C[C@H]1C(=O)O (stereo partly drawn),inactive: 16.2%,–
CN1C(C(=O)Nc2ccccn2)=C(O)c2sccc2S1(=O)=O,inactive,–
Cc1ncc([N+](=O)[O-])n1CC(O)CCl (stereo not drawn),inactive: 8.95% [at 75.8 µM],–
Cc1cc(C(=O)NCCc2ccc(S(=O)(=O)NC(=O)NN3CCCCCC3)cc2)no1,inactive: 15.2%,–
O=c1c(CCc2ccccc2)nc2cncnc2n1Cc1ccccc1,inactive: 7.3%,–
COc1ccc(OC)c(-c2cc(Cl)c3c(c2)CC(CNC(=O)c2cnn4cccnc24)O3)c1 (stereo not drawn),inactive: 23.3%,–
Cc1cn([C@H]2C[C@H](F)[C@@H](CO)O2)c(=O)[nH]c1=O,inactive: 10.8%,–
Cc1nc2cnc(Oc3ccccc3)nc2n(CCc2ccccc2)c1=O,inactive: 4.81%,–
Cc1noc(C)c1C(=O)N1CCC[C@@]2(CCN(Cc3ccccc3)C2)C1,inactive: 13.4%,–
CS(=O)(=O)Nc1cccc(-c2nc(Nc3ccccc3)c3ccccc3n2)c1,inactive: 0.303%,–
COC(=O)C1N[C@@H]([C@@H](NC(=O)COc2ccccc2)C(=O)NCc2ccsc2)SC1(C)C (stereo partly drawn),inactive: 12.1%,–
N[C@@H](C(=O)N[C@H]1C(=O)N2C(C(=O)O)=C(Cl)CC[C@H]12)c1ccccc1,inactive: 16.5%,–
Cc1cccc(C)c1NC(=O)C1CCCCN1C (stereo not drawn),inactive: 6.5%,–
COc1ccc(C2C(=O)c3ccccc3C2=O)cc1,inactive: 14.4%,–
COc1cc2nc(CC(O)c3nc4cc(OC)c(OC)cc4[nH]3)[nH]c2cc1OC (stereo not drawn),inactive: 15.3%,–
C[C@@H](CN(C)C)CN1c2ccccc2Sc2ccccc21,inactive: -0.415% [at 75.8 µM],–
CN(C)c1ccc2nc3ccc(=[N+](C)C)cc-3sc2c1,inactive: -2.12%,–
CN(C)c1ncnc2ccc(-c3ccc4c(c3)OCO4)cc12,inactive: -20.3%,–
COc1cc(/C=C/C(=O)N2CCC=CC2=O)cc(OC)c1OC,inactive: -6.83%,–
O=C(O)c1cc2cc(Cl)ccc2[nH]1,inactive: 10.6%,–
COC(=O)C1CCN(Cc2ccc3c(c2)CN(C(=O)c2sc(C)nc2C)CCO3)CC1,inactive: 10.8%,–
COCC(=O)N1CCC2(CC1)CCN(c1ccccn1)CC2,inactive: 13.6%,–
C[C@H]1CCC(=O)N([C@H](CN=[N+]=[N-])Cc2ccccc2)CC1,inactive: 6.14%,–
COc1ccccc1CN1CC2(CCN(C(=O)c3cnccn3)CC2)C1,inactive: 10.5%,–

Compound,"activity change, negative = inhibition",Potency
O=C(CCCN1CCN(c2ccc(F)cc2)CC1)NC1c2ccccc2CSc2ccccc21 (stereo not drawn),inactive: 2.48%,–
Cc1cccc2cc(CN(C(=O)c3ccc(N4CCCCC4)cc3)C3CC3)c(N3CCC(O)CC3)nc12,inactive: 9.57%,–
CC1(C)S[C@@H]2C(C(=O)O)NC(=O)N2C1C(=O)O (stereo partly drawn),inactive: -1.92%,–
Oc1cc2c(c(Cl)c1O)CCNC[C@H]2c1ccccc1,inactive: -4.4%,–
S=C1SCN(Cc2ccccc2)CN1Cc1ccccc1,inactive: 17.3%,–
COc1c(O)c2c(=O)cc(OC)c3c4c(OC)cc(=O)c5c(O)c(OC)c(C[C@@H](C)OC(=O)c6ccccc6)c(c(c1C[C@@H](C)OC(=O)Oc1ccc(O)cc1)c23)c54,inactive: 10.9% [at 7.83 µM],–
Cn1cccc1C(=O)N1CCC2(CC1)CCN(c1ccccc1)CC2,inactive: 17%,–
CC(=O)c1ccc(F)c(-c2cc(C)cc3c2OC(CNC(=O)c2cccnc2)C3)c1 (stereo not drawn),inactive: -4.39%,–
N#Cc1cccc(-c2cncnc2NCCc2cnc[nH]2)c1,inactive: -8.42%,–
COc1ccc2[nH]cc(CCNc3cc(-c4ccoc4)ncn3)c2c1,inactive: -13.5%,–
CCN[C@@H]1C[C@H](N)[C@@H](OC2OC(CN)=CCC2N)[C@H](O)[C@H]1O[C@H]1OC[C@](C)(O)[C@H](NC)[C@H]1O (stereo partly drawn),inactive: 5.37%,–
CCS(=O)(=O)Nc1cc(C(=O)N2C[C@@H](C)O[C@@H](C)C2)c2c(c1)nc(-c1ccccc1)n2C,inactive: 8.62%,–
Cc1cc(C2CCCCC2)n(O)c(=O)c1,inactive,–
CC(=O)N1CCC2(CC1)CCN(C(=O)Nc1cccc(C#N)c1)CC2,inactive: 16.1%,–
C[C@@]12CC[C@@H]3c4ccc(O)cc4C[C@H](CCCCCCCCCS(=O)CCCC(F)(F)C(F)(F)F)[C@H]3[C@@H]1CC[C@@H]2O (stereo partly drawn),inactive: -5.29%,–
O=C(c1ccnc(-n2cnnn2)c1)N1CCOc2ccc(C(O)CCc3ccccc3)cc2C1 (stereo not drawn),inactive: -4.03%,–
CCC1(C2CCN(C(=O)c3cccc(F)c3F)CC2)NC(=O)N(CCc2scnc2C)C1=O (stereo not drawn),inactive: 11.9%,–
CC1=C(C(=O)OC(C)C)C(c2cccc([N+](=O)[O-])c2)C(C(=O)OC2CN(C(c3ccccc3)c3ccccc3)C2)=C(N)N1 (stereo not drawn),inactive: -9.36%,–
O=S(=O)(c1ccccc1)N1CCC2(CC1)CN(c1ccccc1)C2,inactive: 5.63%,–
O=c1c(-c2ccc(F)cc2)nc2cnc(N3CCOCC3)nc2n1CCc1ccccc1,inactive: 3.59%,–
Oc1ccc(/C=C/c2ccc(/C=C/c3ccc(O)cc3)c(Br)c2)cc1,inactive: 23.9% [at 75.8 µM],–
CS(=O)(=O)N1CCC2(CC1)CN(C(=O)Nc1cccc(F)c1)C2,inactive: 19.1%,–
CC(C)(N=NC(C)(C)C(=N)N)C(=N)N,inactive: -0.214%,–
COc1ccc2[nH]cc(CCNc3ccnc(-c4cccc(NS(C)(=O)=O)c4)n3)c2c1,inactive: 15.8%,–

Compound,"activity change, negative = inhibition",Potency
OC[C@H]1O[C@@H](O[C@H]2[C@H](O)[C@@H](O)[C@H](O)O[C@@H]2CO)[C@H](O)[C@@H](O)[C@@H]1O,inactive: 16.1%,–
COc1cc(C(=O)NS(=O)(=O)c2ccccc2C)ccc1Cc1cn(C)c2ccc(NC(=O)OC3CCCC3)cc12,–,active: 89.1 µM
O=C(c1csnn1)N1CCC2(CCN(Cc3nccs3)CC2)CC1,inactive: 10.4%,–
Cc1cc(CNC(=O)CCN2Cc3cc(Cl)ccc3OC(C)C2)nn1C (stereo not drawn),inactive: 4.43%,–
COc1ccc(CN2CCN(C(C)=O)CC2)cc1OC1CCN(C(=O)c2ccc3[nH]c(C)c(C)c3c2)CC1,inactive: 3.94%,–
CCCCCCCCCCCCC/C=C/[C@@H](O)[C@H](CO)NC(C)=O,inactive: -20.1% [at 15.3 µM],–
CC(C)NC(=O)N1CCC2(CC1)CCN(C(=O)c1cc(C(F)(F)F)cc(C(F)(F)F)c1)CC2,inactive: 14.8%,–
COc1ccccc1CN1CCCC2(CCN(C(=O)c3c(C)noc3C)CC2)C1,inactive: 11.9%,–
O=C(O)c1cc(=O)c2ccccc2o1,inactive: -7.36%,–
CC(C)NC(=O)c1cn(C2CCC(NC(=O)C(C)(C)C)CC2)nn1 (stereo not drawn),inactive: 20%,–
CN(CCc1ccc(Cl)c(Cl)c1)CCN1CCCCCC1,inactive: -1.95%,–
COc1ccc2oc(-c3ccccc3)c(OC)c(=O)c2c1,inactive: 4.07%,–
COc1ccc2ccc(=O)oc2c1,inactive: 6.21%,–
OC[C@H]1O[C@@H]2O[C@H]3[C@H](O)[C@@H](O)[C@@H](O[C@H]4[C@H](O)[C@@H](O)[C@@H](O[C@H]5[C@H](O)[C@@H](O)[C@@H](O[C@H]6[C@H](O)[C@@H](O)[C@@H](O[C@H]7[C@H](O)[C@@H](O)[C@@H](O[C@H]1[C@H](O)[C@H]2O)O[C@@H]7CO)O[C@@H]6CO)O[C@@H]5CO)O[C@@H]4CO)O[C@@H]3CO,inactive: 16.1%,–
NCCCC[C@H](NC(=O)[C@@H]1CCCN1C(=O)[C@@H]1CSSC[C@H](NC(=O)CNC(=O)CNC(=O)CN)C(=O)N[C@@H](Cc2ccc(O)cc2)C(=O)N[C@@H](Cc2ccccc2)C(=O)N[C@@H](CCC(N)=O)C(=O)N[C@@H](CC(N)=O)C(=O)N1)C(=O)NCC(N)=O (H-GGGCYFQNCPKG-NH2; disulfide 4-9),inactive: -9.37%,–
CCOC(=O)[C@@H](N)CS,inactive: -14.8%,–
Oc1ccc(Cl)cc1Cc1cc(Cl)ccc1O,inactive: -12.4%,–
NS(=O)(=O)c1cc(C(=O)O)c(NCc2ccco2)cc1Cl,inactive,–
CCc1ccc(S(=O)(=O)O)cc1,inactive: -8.42%,–
COCCn1c(=O)c(C)nc2cnc(N3CCN(C)CC3)nc21,inactive: 16.4%,–
CCCCC/C=C\CC(O)/C=C/c1cccc(CC(O)CCCCO)n1 (stereo not drawn),inactive: -8.73% [at 75.8 µM],–
CC1=CC2C(C(C)C)CCC(C)(O)C2CC1 (stereo not drawn),inactive: 7.33%,–
CC[C@@]1(O)C(=O)OCc2c1cc1n(c2=O)Cc2cc3c([N+](=O)[O-])cccc3nc2-1,inactive: -8.03%,–
CS(=O)(=O)c1ccc([C@@H](O)[C@@H](COC(=O)CN)NC(=O)C(Cl)Cl)cc1,inactive: 7.83%,–

Compound,"activity change, negative = inhibition",Potency
COC(=O)[C@H]1[C@H]2C[C@@H]3c4[nH]c5cc(OC)ccc5c4CCN3C[C@H]2C[C@@H](OC(=O)COc2ccc(OC)cc2)[C@@H]1OC,inactive: -9.7%,–
c1ccc2c(N3CCNCC3)nc(-c3ccoc3)nc2c1,inactive: 14.2%,–
NC(C(=O)O)c1ccc(P(=O)(O)O)cc1 (stereo not drawn),inactive: 8.63%,–
Cc1ccc(CN2CCC(=O)N(Cc3ccccn3)CC2)c(C)c1,inactive: 12.6%,–
Cn1c(=O)c2[nH]c(C3CCCC3)nc2n(C)c1=O,inactive,–
NC(=O)C1CCCN(Cc2ccc3c(c2)CN(Cc2ccccc2)CCO3)C1 (stereo not drawn),inactive: -11.4%,–
COc1ccc(NC(=O)N2CC[C@@]3(CCCN(C(=O)c4c(C)noc4C)C3)C2)cc1,inactive: 13.4%,–
CC(=O)c1ccc(F)c(-c2cc(C)cc3c2OC(CNC(=O)Cn2nc(C)nc2C)C3)c1 (stereo not drawn),inactive: 12.9%,–
COCCCNC(=O)c1cnn(-c2ncc3c(n2)-c2ccccc2CCC3)c1C,inactive: -8.82%,–
CC(C)COCC(CN(Cc1ccccc1)c1ccccc1)N1CCCC1 (stereo not drawn),inactive,–
O=C(Oc1ccccc1)N1CCC[C@@]2(CCN(c3ccccn3)C2)C1,inactive: 10.1%,–
COc1ccc(CNc2ncnc3ccc(-c4ccccc4C#N)cc23)c(OC)c1,inactive: -17.2%,–
NC(=O)c1ncn([C@@H]2O[C@H](CO)[C@@H](O)[C@H]2O)n1,inactive,–
CCC(CC)(CC(=O)Nc1cccc(/C=C/c2nc(C3CCC3)cs2)c1)C(=O)O,inactive: 8.67%,–
O=C1CC(C(=O)N2CCOc3ccc(CN4CCC(Oc5cccnc5)CC4)cc3C2)c2ccccc21 (stereo not drawn),inactive: 23.9%,–
COc1ccccc1CN1CCC2(CCNCC2)CC1,inactive: -3.17%,–
CN(C)c1ccc(C=O)c(Cl)c1,inactive: -11.9%,–
CCn1nc(C)c(CN2CCC3(CCC(CNC(=O)c4ccccc4)O3)CC2)c1C (stereo not drawn),inactive: 13.4%,–
COC(=O)/C=C/c1ccc2c(c1)S(=O)(=O)N(c1cccc(OC)c1)[C@H]2CC(=O)OC,inactive: -4.64%,–
CCOc1ccc2c(c1)C(C)=CC(C)(C)N2,inactive,–
CCOC(=O)[C@H](CCc1ccccc1)N[C@@H](C)C(=O)N1[C@H](C(=O)O)C[C@@H]2CCC[C@@H]21,inactive: 6.45%,–
